In patent publication US20250179210A1, “ANTI-CEACAM5 ANTIBODIES AND CONJUGATES AND USES THEREOF” (Merck Patent GmbH, priority 2022, published 2025):

B1: ADC6-M (conjugate)
heavy: EVQLQESGPGLVKPSQTLSLTCTVSDGSVSRGGYYLTWIRQHPGKGLEWIGYIYYSGSTYFNPSLRSRVTMSVDTSKNQFSLKLSSVTAADTAVYYCARGIAVAPFDYWGQGTLVTVSSASTKGPSVFPLAPSSKSTSGGTAALGCLVKDYFPEPVTVSWNSGALTSGVHTFPAVLQSSGLYSLSSVVTVPSSSLGTQTYICNVNHKPSNTKVDKRV[letters of human IgG1 Fc with changes left out]
light: EIVLTQSPATLSVSPGERATLSCRTSQSVRSNLAWYQQKPGQAPRLLIYAASTRATGIPARFSGSGSGTEFTLTISSLQSEDFAVYYCQQYTNWPFTFGPGTKVDIKRTVAAPSVFIFPPSDEQLKSGTASVVCLLNNFYPREAKVQWKVDNALQSGNSQESVTEQDSKDSTYSLSSTLTLSKADYEKHKVYACEVTHQGLSSPVTKSFNRGEC
B2: ADC3-M (conjugate)
heavy: EVQLQESGPGLVKPSQTLSLTCTVSDGSVSRGGYYLTWIRQHPGKGLEWIGYIYYSGSTYFNPSLRSRVTMSVDTSKNQFSLKLSSVTAADTAVYYCARGIAVAPFDYWGQGTLVTVSSASTKGPSVFPLAPSSKSTSGGTAALGCLVKDYFPEPVTVSWNSGALTSGVHTFPAVLQSSGLYSLSSVVTVPSSSLGTQTYICNVNHKPSNTKVDKRVEPKSCDRTHTCPPCPAPEAAGGPSVFLFPPKPKDTLYITREPEVTCVVVDVSHEDPEVKFNWYVDGVEVHNAKTKPREEQYNSTYRVVSVLTVLHQDWLNGKEYKCKVSNKALPAPIEKTISKAKGQPREPQVYTLPPSREEMTKNQVSLTCLVKGFYPSDIAVEWESNGQPENNYKTTPPVLDSDGSFFLYSKLTVDKSRWQQGNVFSCSVMHEALHNHYTQKSLSLSPG
light: EIVLTQSPATLSVSPGERATLSCRTSQSVRSNLAWYQQKPGQAPRLLIYAASTRATGIPARFSGSGSGTEFTLTISSLQSEDFAVYYCQQYTNWPFTFGPGTKVDIKRTVAAPSVFIFPPSDEQLKSGTASVVCLLNNFYPREAKVQWKVDNALQSGNSQESVTEQDSKDSTYSLSSTLTLSKADYEKHKVYACEVTHQGLSSPVTKSFNRGECGGTLQSPP
modifications: GGG-glucuronide-exatecan conjugate, DAR 4
B3: ADC7-M (conjugate)
heavy: EVQLQESGPGLVKPSQTLSLTCTVSDGSVSRGGYYLTWIRQHPGKGLEWIGYIYYSGSTYFNPSLRSRVTMSVDTSKNQFSLKLSSVTAADTAVYYCARGIAVAPFDYWGQGTLVTVSSASTKGPSVFPLAPSSKSTSGGTAALGCLVKDYFPEPVTVSWNSGALTSGVHTFPAVLQSSGLYSLSSVVTVPSSSLGTQTYICNVNHKPSNTKVDKRV[letters of human IgG1 Fc with changes left out]
light: EIVLTQSPATLSVSPGERATLSCRTSQSVRSNLAWYQQKPGQAPRLLIYAASTRATGIPARFSGSGSGTEFTLTISSLQSEDFAVYYCQQYTNWPFTFGPGTKVDIKRTVAAPSVFIFPPSDEQLKSGTASVVCLLNNFYPREAKVQWKVDNALQSGNSQESVTEQDSKDSTYSLSSTLTLSKADYEKHKVYACEVTHQGLSSPVTKSFNRGECGGTLQSPP

Key:
[1] = test system: human patient-derived gastric xenograft model GAPF313; assay: Gastric PDX mouse model GAPF313; assay type: in vivo
Method: (§1) Anti-tumor efficacy in vivo was evaluated in the human patient-derived gastric xenograft model GAPF313 (Shanghai LideBiotech CO., LTD). Tumor fragments were transplanted subcutaneously into the right flank of six to eight weeks old immunodeficient female mice (NU-Foxn1nu, Charles River). […] Tumor length (L) and width (W) were measured with calipers and tumor volumes were calculated using the formula L×(W^2)/2.
Anti-tumor efficacy of ADC1-M and ADC3-M in comparison to ADC SAR DM4 has been evaluated in the human GC xenograft model GAPF313. The study was performed at Lide Biotech (Shanghai). Six to eight weeks old immunodeficient female mice (Crl: NU-Foxn1nu) were transplanted subcutaneously in the right flank with GAPF313 tumor fragments. When tumors reached a mean volume of 176 mm^3 6 mice/group were treated intravenously every other week (3 cycles) with vehicle (saline solution) or with 4 mg/kg ADC1-M or ADC3-M or 4.7 mg/kg ADC SAR DM4. Tumor length (L) and width (W) were measured with calipers and tumor volumes were calculated using L×W^2/2.

[2] = test system: human patient-derived CRC xenograft model COPF230; assay: CRC PDX mouse model COPF230; assay type: in vivo; details: for efficacy compared to ADC SAR DM4 in CRC PDX models (expected): COPF230 and REPF210
Method: as §1, with “CRC” for “gastric”, “models COPF230 and REPF210” for “model GAPF313”
Anti-tumor efficacy of ADC1-M and ADC3-M in comparison to ADC SAR DM4 was in the human CRC xenograft model COPF230. The study was performed at Lide Biotech (Shanghai). Six to eight weeks old immunodeficient female mice (Crl: NU-Foxn1nu) were transplanted subcutaneously in the right flank with COPF230 tumor fragments. When tumors reached a mean volume of 165 mm^3 6 mice/group were treated once intravenously with vehicle (saline solution) or with ADC1-M, ADC3-M or ADC SAR DM4 (each 6 mg/kg). Tumor length (L) and width (W) were measured with calipers and tumor volumes were calculated using L×W^2/2.

[3] = test system: human pancreatic cell line derived xenograft model HPAF-II; assay: Pancreatic cell line derived xenograft model HPAF-II; assay type: in vivo, mouse; details: for anti-tumor effect: single i.v. treatment
Method: 5×10^6 HPAF-II cells were injected subcutaneously into the right flank of six to eight weeks old immunodeficient female mice (Hsd:Athymic Nude-Foxn1nu, Envigo). […] Tumor length (L) and width (W) were measured with calipers and tumor volumes were calculated using L×(W^2)/2.
Efficacy of ADC1-M and ADC3-M in comparison to ADC8 was evaluated in the human pancreatic adenocarcinoma, cell line-derived xenograft model HPAF-II (ATCC, CRL-1997). Six to eight weeks old immunodeficient female mice (Hsd:Athymic Nude-Foxn1nu, Envigo) were injected subcutaneously in the right flank with 5×10^6 HPAF-II cells. When tumors reached a mean volume of 150 mm^3, 10 mice/group were treated once intravenously with ADC1-M (1 mg/kg or 6 mg/kg) or with ADC3-M (1 mg/kg or 6 mg/kg) or with ADC8 (1 mg/kg or 6 mg/kg). Tumor length (L) and width (W) were measured with calipers and tumor volumes were calculated using L×W^2/2.

[4] = Pharmacokinetic study in human FcRn transgenic mice; details: 3 mg/kg i.v., HuFcRn mice; for C0: back extrapolation; for %_Ext: extrapolated part of AUCinf; for t1/2: total antibody
[5] = test system: CEACAM5-negative MDA-MB-231 cells in co-culture with CEACAM5-positive SK-CO-1 cells; assay: Bystander assay; assay type: cell-based, human; details: for non-specific effect on MDA-MB-231 cells alone (only controls) / bystander effect against CEACAM5-negative MDA-MB-231 cells in the presence of CEACAM5-positive SK-CO-1: ADC concentration of 1 nM; for bystander effect against CEACAM5-negative MDA-MB-231 cells in the presence of CEACAM5-positive SK-CO-1: six days; for bystander effect compared to ADC SAR DM4: co-culture, 1 nM
Method: Cytotoxicity effects of ADCs on antigen-negative cancer cell lines in co-culture with antigen-positive cancer cell lines were measured by bystander assays. One thousand CEACAM5-negative MDA-MB-231 cells were seeded in co-culture experiments with 750 or 3000 CEACAM5-positive SK-CO-1 cells per well. As a control, 1000 MDA-MB-231 cells only were seeded in parallel. Cells were seeded in a total volume of 90 μL in 96-well plates the day before treatment. Test compounds were formulated at 10-fold the final concentration of 1E-9 M in cell culture medium and 10 μL was added to the cells in duplicates. Plates were cultured at 37° C. in a CO2 incubator for six days.
Prior to immunofluorescence staining, medium was removed and cells were treated with 100% methanol (−20° C.) for 30 minutes. After methanol removal and one PBS wash step, cells were treated with 2.5% paraformaldehyde (PFA) with 0.2% Triton X-100 in PBS for 15 minutes at room temperature. After solution removal and one PBS wash step, cells were treated with 1% BSA/0.1% Tween/0.1% sodium azide in PBS for at least one hour at room temperature. Antigen-positive and antigen-negative cells were discriminated by immunofluorescence staining with 10 μg/mL human anti-CEACAM5 (mAb1) primary antibody and 1:2000 dilution of donkey anti-human IgG fluorescently (phycoerythrin) labeled secondary antibody (Jackson ImmunoResearch #709-116-149). Cells were identified by nuclei staining using 1 μg/mL Hoechst 33342 (Life technologies, cat #H3570) dye. Staining was carried out in 1% BSA/0.1% sodium azide PBS solutions for 30 minutes at room temperature. Secondary antibody staining was combined with Hoechst dye staining. Between and after staining steps, cells were washed thrice with PBS.
Plates were imaged with the confocal quantitative image cytometer CQ1 (Yokogawa® Electric Corporation, Tokyo, Japan). Analysis was adapted from the CQ1 software (Yokogawa) template “Nucleus and pseudo-Cell body” and FCS export files were analyzed using FlowJo (BD). Based on staining or absence of staining with fluorescently labeled antibody around the nucleus, antigen-positive and antigen-negative cells were distinguished and quantified. Bar graphs show the number of identified antigen-positive and antigen-negative cells per treatment condition.

| Molecule | efficacy compared to ADC SAR DM4 (expected) [1] | efficacy compared to ADC SAR DM4 in CRC PDX models (expected) [2] | efficacy compared to ADC3 (expected) [3] | AUCinf [4] | AUClast [4] | Cl [4] | Tlast [4] | Vss [4] | Vz [4] | C0 [4] | %_Ext [4] | t1/2 [4] | non-specific effect on MDA-MB-231 cells alone (only controls) [5] | bystander effect against CEACAM5-negative MDA-MB-231 cells in the presence of CEACAM5-positive SK-CO-1 [5] | bystander effect compared to ADC SAR DM4 [5] | bystander effect compared to ADC SAR (expected) [5] | anti-tumor effect ([1]; i.v. every other week (3 cycles), 4 mg/kg ADC1-M or ADC3-M, 4.7 mg/kg ADC SAR DM4) | anti-tumor effect ([2]; single i.v. treatment, 6 mg/kg) | anti-tumor effect ([3]; 1 mg/kg) | anti-tumor effect ([3]; 6 mg/kg) |
| --- | --- | --- | --- | --- | --- | --- | --- | --- | --- | --- | --- | --- | --- | --- | --- | --- | --- | --- | --- | --- |
| B1 | compare similarly favorably to ADC SAR DM4 | compare similarly favorably to ADC SAR DM4 | compare similarly favorably to ADC3 | 2850 µg·h/mL | 2850 µg·h/mL | 25.2 mL/day/kg | 336 h | 0.0498 L/kg | 0.0513 L/kg | 84.1 µg/mL | 0.1% | 33.8 h | no non-specific effect | potent bystander effect | much more potent bystander effect | more potent bystander effects than ADC SAR |  |  |  |  |
| B2 | compare similarly favorably to ADC SAR DM4 | compare similarly favorably to ADC SAR DM4 | compare similarly favorably to ADC3 |  |  |  |  |  |  |  |  |  |  |  |  | more potent bystander effects than ADC SAR | comparable and significant anti-tumor effect | comparable and significant anti-tumor effect | minor and temporary anti-tumor effect | much stronger anti-tumor effect |
| B3 | compare similarly favorably to ADC SAR DM4 | compare similarly favorably to ADC SAR DM4 | compare similarly favorably to ADC3 | 6140 µg·h/mL | 5720 µg·h/mL | 11.7 mL/day/kg | 504 h | 0.0934 L/kg | 0.086 L/kg | 55.8 µg/mL | 6.9% | 122 h | no non-specific effect | potent bystander effect | much more potent bystander effect | more potent bystander effects than ADC SAR |  |  |  |  |
